Measured values: a collection of fitness landscapes (doi:10.1016/j.celrep.2020.107928)
Over roughly 81,000 sequences, “one-hybrid fitness for binding NBS DNA” has its median near -0.1; the highest 2% begin near 0.36. The list shows a part of the results.

B1: Caulobacter ParB omega fusion; a variant is named by its letters at X, in order, B8GW30 (parent)
chain: MESVVVGEPGMSEGRRGLGRGLSALLGEVDAAPAQAPGEQLGGSREAPIEILQRNPDQPRRTFREEDLEDLSNSIREKGVLQPILVRPSPDTAGEYQIVAGERAWRAAQRAGLKTVPIMVRELDDLAVLEIGIIENVQRADLNVLEEALSYKVLMEKFERTQENIAQTIGKSXSHVANXMRLLXLPDEVQSYLVSGELTAXHARAIAAAADPVALAKQIIEGGLSVRETEALARKAPNLSAGKSKGGRPPRVKDTDTQALESDLSSVLGLDVSIDHRGSTGTLTITYATLEQLDDLCNRLTRGI

Variants of: B1
Experiment: one-hybrid fitness for binding NBS DNA (the Noc-binding site; scaled: cognate 1, non-cognate 0); higher = stronger binding
Settings: with NBS DNA site
Summary of the method: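 In E. coli USO, a HIS3 reporter with its site placed 19 bp from the promoter was used to select Caulobacter ParB variants randomised at four specificity codons. Growth lasted 48 hours at 37°C on histidine-free M9 containing 0.1 mM IPTG and 5 mM 3-AT. Fitness was taken as the log change in variant-to-wild-type read ratio from Illumina sequencing of pre- and post-selection plasmids, rescaled between the non-cognate and cognate sites.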

Row | Variant | one-hybrid fitness for binding NBS DNA
1 | GMTV | ≤ 0.2
2 | TWCG | ≤ 0.2
3 | MAMM | ≤ 0.2
4 | AVLD | ≤ 0.2
5 | IVDG | ≤ 0.2
6 | VGTR | ≤ 0.2
7 | NIPS | ≤ 0.2
8 | SQRF | ≤ 0.2
9 | GFNN | ≤ 0.2
10 | LPTN | ≤ 0.2
11 | PMFS | ≤ 0.2
12 | LMVV | ≤ 0.2
13 | VNRY | ≤ 0.2
14 | VYQS | ≤ 0.2
15 | KTKI | ≤ 0.2
16 | PNQV | ≤ 0.2
17 | RWWT | ≤ 0.2
18 | LMFM | ≤ 0.2
19 | HHTE | ≤ 0.2
20 | KQDT | ≤ 0.2
21 | PFLS | ≤ 0.2
22 | FRWT | ≤ 0.2
23 | SFKY | ≤ 0.2
24 | GLWW | ≤ 0.2
25 | EIAR | ≤ 0.2
26 | TADI | ≤ 0.2

Row | Variant | one-hybrid fitness for binding NBS DNA
27 | NWHT | ≤ 0.2
28 | NKSN | ≤ 0.2
29 | DMNS | ≤ 0.2
30 | DRFV | ≤ 0.2
31 | RRHG | 0.362
32 | RNSR | 0.256
33 | SSHG | ≤ 0.2
34 | SMRW | ≤ 0.2
35 | QVEF | ≤ 0.2
36 | YMRC | ≤ 0.2
37 | HAAI | ≤ 0.2
38 | QVPS | ≤ 0.2
39 | LPRT | ≤ 0.2
40 | EAKH | ≤ 0.2
41 | LPIQ | ≤ 0.2
42 | LPAK | ≤ 0.2
43 | VEYR | ≤ 0.2
44 | DIDR | ≤ 0.2
45 | YRVS | ≤ 0.2
46 | KHQV | ≤ 0.2
47 | CYLY | ≤ 0.2
48 | ADPV | ≤ 0.2
49 | KRRT | 0.674
50 | HQAD | ≤ 0.2
51 | YCEM | ≤ 0.2
52 | GKYG | ≤ 0.2

Row | Variant | one-hybrid fitness for binding NBS DNA
53 | INLL | ≤ 0.2
54 | HYER | ≤ 0.2
55 | TVMQ | ≤ 0.2
56 | QKCV | ≤ 0.2
57 | GFNF | ≤ 0.2
58 | PNMM | ≤ 0.2
59 | DEAY | ≤ 0.2
60 | PYVC | ≤ 0.2
61 | CSLN | ≤ 0.2
62 | RFID | ≤ 0.2
63 | SVYR | ≤ 0.2
64 | ICIR | ≤ 0.2
65 | IEES | ≤ 0.2
66 | QKIR | 0.37
67 | SEHQ | ≤ 0.2
68 | YVVG | ≤ 0.2
69 | PNPW | ≤ 0.2
70 | QDWW | ≤ 0.2
71 | PLWA | ≤ 0.2
72 | FRTQ | ≤ 0.2
73 | ACYY | ≤ 0.2
74 | CHRH | ≤ 0.2
75 | AKNI | ≤ 0.2
76 | QRTR | 1.01
77 | WIFG | ≤ 0.2
78 | RTCC | ≤ 0.2

Row | Variant | one-hybrid fitness for binding NBS DNA
79 | RMWL | ≤ 0.2
80 | HENT | ≤ 0.2
81 | QANA | 0.257
82 | IYPS | ≤ 0.2
83 | QLLG | ≤ 0.2
84 | AVAV | ≤ 0.2
85 | TTVM | ≤ 0.2
86 | DEAS | ≤ 0.2
87 | ESYI | ≤ 0.2
88 | VVGL | ≤ 0.2
89 | QGKG | ≤ 0.2
90 | QRKE | 0.368
91 | SSTQ | ≤ 0.2
92 | QSNF | ≤ 0.2
93 | GVGC | ≤ 0.2
94 | YPEG | ≤ 0.2
95 | QQVQ | 0.395
96 | QPDA | ≤ 0.2
97 | RIHL | ≤ 0.2
98 | QYSN | ≤ 0.2
99 | RMYS | 0.361
100 | VFRW | ≤ 0.2
101 | PLMW | ≤ 0.2
102 | YQDY | ≤ 0.2
103 | NRFF | ≤ 0.2
104 | KMPC | ≤ 0.2

Row | Variant | one-hybrid fitness for binding NBS DNA
105 | QAWC | ≤ 0.2
106 | QGPS | ≤ 0.2
107 | MHTC | ≤ 0.2
108 | SQWF | ≤ 0.2
109 | AVYG | ≤ 0.2
110 | IPCG | ≤ 0.2
111 | ACSY | ≤ 0.2
112 | PPYW | ≤ 0.2
113 | AYLI | ≤ 0.2
114 | RKNV | ≤ 0.2
115 | SPHT | ≤ 0.2
116 | RVWS | 0.225
117 | KHYE | ≤ 0.2
118 | YMRT | ≤ 0.2
119 | KHRA | ≤ 0.2
120 | DTRW | ≤ 0.2
121 | KAKA | ≤ 0.2
122 | DPHY | ≤ 0.2
123 | VQRC | ≤ 0.2
124 | ACYN | ≤ 0.2
125 | DSLF | ≤ 0.2
126 | QMEL | ≤ 0.2
127 | DRPY | ≤ 0.2
128 | SRAA | ≤ 0.2
129 | PTRP | ≤ 0.2
130 | DNYS | ≤ 0.2

Row | Variant | one-hybrid fitness for binding NBS DNA
131 | RSCS | 0.343
132 | GPDV | ≤ 0.2
133 | ETES | ≤ 0.2
134 | RMDK | ≤ 0.2
135 | WRVG | ≤ 0.2
136 | KARC | ≤ 0.2
137 | TLQI | ≤ 0.2
138 | KKTT | 0.325
139 | QAVA | ≤ 0.2
140 | QMTN | ≤ 0.2
141 | VVKL | ≤ 0.2
142 | TFEV | ≤ 0.2
143 | VDSI | ≤ 0.2
144 | TKGL | ≤ 0.2
145 | RNQD | ≤ 0.2
146 | CFEL | ≤ 0.2
147 | RMLV | ≤ 0.2
148 | SMIG | ≤ 0.2
149 | IHNT | ≤ 0.2
150 | KNTA | ≤ 0.2
151 | RRYR | 0.728
152 | AYWT | ≤ 0.2
153 | PLVL | ≤ 0.2
